# Source: article PMC4336329 (PLoS ONE, 2015)
# Hit rate of the full screen: of about 310,000 compounds, about 14,000 (4.5%) showed an effect of 50% or more. The effect is printed as a negative number. This is one part of the list.
# Biological target: human ether-à-go-go-related gene (hERG) potassium channel (human, UniProt Q12809)
# Assay: primary screen, population patch clamp on CHO cells stably expressing hERG
# 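Note: peak tail current of the secondary pulse compared with the same well before compound.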
# Sequence of human ether-à-go-go-related gene (hERG) potassium channel (Q12809 whole entry, looked up): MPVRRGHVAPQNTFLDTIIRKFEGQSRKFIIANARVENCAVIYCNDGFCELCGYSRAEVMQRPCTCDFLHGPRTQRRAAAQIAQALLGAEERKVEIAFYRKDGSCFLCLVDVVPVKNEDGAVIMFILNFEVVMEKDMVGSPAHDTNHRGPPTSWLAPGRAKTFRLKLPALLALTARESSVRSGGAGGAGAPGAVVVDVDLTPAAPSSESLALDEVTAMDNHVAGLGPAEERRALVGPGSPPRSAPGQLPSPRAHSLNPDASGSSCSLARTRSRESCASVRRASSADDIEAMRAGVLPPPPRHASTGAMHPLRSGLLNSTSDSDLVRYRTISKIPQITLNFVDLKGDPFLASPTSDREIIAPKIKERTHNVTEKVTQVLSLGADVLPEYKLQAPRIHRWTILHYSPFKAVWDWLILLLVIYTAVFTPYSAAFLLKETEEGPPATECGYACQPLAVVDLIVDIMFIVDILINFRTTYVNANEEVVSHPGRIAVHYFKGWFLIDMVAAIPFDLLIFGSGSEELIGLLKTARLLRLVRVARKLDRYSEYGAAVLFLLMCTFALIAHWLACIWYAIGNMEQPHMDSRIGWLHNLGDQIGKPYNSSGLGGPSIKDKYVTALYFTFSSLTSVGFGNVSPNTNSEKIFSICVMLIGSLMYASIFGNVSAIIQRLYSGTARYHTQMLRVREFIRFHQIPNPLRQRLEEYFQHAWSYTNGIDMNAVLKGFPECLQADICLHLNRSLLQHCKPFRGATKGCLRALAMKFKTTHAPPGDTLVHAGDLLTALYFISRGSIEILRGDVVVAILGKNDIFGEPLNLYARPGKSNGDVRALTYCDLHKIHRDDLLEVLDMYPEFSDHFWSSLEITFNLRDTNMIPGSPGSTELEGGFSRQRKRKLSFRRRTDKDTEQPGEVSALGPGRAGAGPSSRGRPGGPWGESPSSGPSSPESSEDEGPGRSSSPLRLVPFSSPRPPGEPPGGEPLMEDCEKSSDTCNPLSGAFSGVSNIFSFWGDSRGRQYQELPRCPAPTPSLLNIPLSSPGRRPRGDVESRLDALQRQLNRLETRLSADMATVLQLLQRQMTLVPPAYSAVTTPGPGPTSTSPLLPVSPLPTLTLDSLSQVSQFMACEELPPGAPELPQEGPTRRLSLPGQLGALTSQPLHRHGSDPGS
row,SMILES,"hERG current change (%, negative = inhibition) at 10uM"
1,c1ccc(-c2cncnc2)cc1,6.07%
2,CCC(C)c1nc2ccsc2c(N2CCOC2=O)c1-c1ccccc1 (centres unmarked),-20.1%
3,CCCCC(=O)N1CC(=O)Nc2ccc(F)cc2C1c1ccccc1 (centres unmarked),0.246%
4,COC(=O)c1c(-c2ccc(C(C)(C)C)cc2)csc1NC(=O)C1C2CCC(O2)C1C(=O)O (centres unmarked),4.24%
5,Cc1sc2ncnc(SCC(=O)NC3CC3)c2c1C,-15.2%
6,NC(=S)N/N=C/c1ccc(-c2cc(Cl)cc(Cl)c2)o1,3.99%
7,COc1ccc(-c2nn(-c3ccccc3)cc2/C=C(\C#N)C(N)=O)cc1[N+](=O)[O-],50.5%
8,CC(=O)c1ccc(N2Cc3ccccc3/C2=N\C(=O)Nc2ccc(Cl)cc2)cc1,-7.23%
9,Cc1cccc(-n2c(C)cc(/C=N/NC(=O)c3cccc([N+](=O)[O-])c3C)c2C)c1,16.8%
10,CCOC(=O)CC(=O)CSc1nc2ccccc2c(=O)n1-c1ccc(C(=O)N2CCOCC2)cc1,11.2%
11,COc1cc(C(=S)N2CCCC2)cc(OC)c1O,8.88%
12,c1ccc(CNCC2COc3ccccc3O2)cc1 (centres unmarked),8.17%
13,Cc1ccc2cc(C#N)c(SCC(=O)NCc3ccco3)nc2c1,9.57%
14,N/C(=N\OC(=O)c1ccc([N+](=O)[O-])cc1)c1cccnc1,-10.7%
15,Cc1ccc(Oc2ccccc2/C=C/C(=O)O)cc1,14.6%
16,C=CCCCCCCCCC(=O)NNC1=CC(=O)CC(C)(C)C1,-11%
17,CCn1c(=O)cc(SCC(=O)NCCCN2CCC(C)CC2)c2ccccc21,-13%
18,O=C(CN1C(=O)/C(=C\c2ccccc2Br)Oc2ccccc21)NCCCN1CCOCC1,-17.8%
19,CCOC(=O)c1cc(S(=O)(=O)N2CCOCC2)cn1C,18.5%

row,SMILES,"hERG current change (%, negative = inhibition) at 10uM"
1,Cl.c1ccc2c(c1)oc1c(NCC3CCCO3)ncnc12 (centres unmarked),-6.22%
2,O=C(CNC(=O)c1ccco1)NCC(=O)OCc1ccc(F)cc1,13.6%
3,C/C(=C\c1ccccc1)C1NC(=O)c2c(sc3c2CCCC3)N1 (centres unmarked),7.46%
4,COc1cc(/C=C(\C#N)c2nc3ccccc3[nH]2)ccc1OC(=O)c1ccco1,0.943%
5,COc1cccc(CNC(=O)CN2C(=O)COc3ccc(S(=O)(=O)N4CCOCC4)cc32)c1,1.23%
6,CCN1CCN(C(=O)C2CCN(c3nnc(-n4c(C)ccc4C)s3)CC2)CC1,-13%
7,CCC(C)NC(=O)CSC1=Nc2ccccc2C2=NC(CC(=O)NCc3ccccc3)C(=O)N12 (centres unmarked),-0.668%
8,O=C(NC1CCCC1)C1=COCCO1,5.2%
9,CCC(COC)NC(=O)CCc1nnc(Cc2c[nH]c3ccccc23)o1 (centres unmarked),29.4%
10,c1ccc(N(c2ccccc2)c2nc(N3CCCC3)nc(-n3ccnc3)n2)cc1,-6.6%
11,O=C(CSc1nnc(-c2ccncc2)n1CC1CCCO1)Nc1cccc(O)c1 (centres unmarked),2.38%
12,CC1=NN(c2nc(-c3ccc(Cl)cc3)cs2)C(=O)C1,13.8%
13,O=C(Nc1nnc(SCc2ccccc2)s1)c1ccco1,3.26%
14,Cc1ccc(S(=O)(=O)/N=C(/Nc2ccc3[nH]c(=O)[nH]c3c2)c2ccccc2)cc1,7.3%
15,COc1ccc(-c2cn3ccccc3n2)cc1,11.9%
16,O=C(O)CCCc1nc(-c2ccccc2)no1,-2.35%
17,Cc1cc([N+](=O)[O-])cc(C)c1OCC(=O)N/N=C/c1ccc(OC(=O)c2ccccc2)cc1,-2.89%
18,COc1cc2c(cc1OC)C(C)N(C(=O)Cc1ccc(C(F)(F)F)cc1)CC2 (centres unmarked),-21.8%
19,NC(=O)CSc1nc(-c2ccccc2Cl)ns1,-3.02%

row,SMILES,"hERG current change (%, negative = inhibition) at 10uM"
1,CC(/C=N/NC(=O)c1nnn(-c2nonc2N)c1CN(C)C)=C\c1ccco1,-44.1%
2,c1ccc(CN2CCN(c3ncnc4c3[nH]c3ccccc34)CC2)cc1,-62.5%
3,CN(C)c1ccc(NC(=O)CSc2nc3ccccc3c(=O)n2C2CCCCC2)cc1,-20.8%
4,CC(=O)N1CCCc2cc(S(=O)(=O)N3CCCC(C(=O)Nc4cccc(C)c4)C3)ccc21 (centres unmarked),-10.4%
5,COc1ccccc1N(CC(=O)NCc1ccccc1)C(=O)CCC(=O)Nc1nccs1,14.5%
6,O=C(O)c1cc(N=Nc2ccc(S(=O)(=O)Nc3ccccn3)cc2)ccc1O,7.91%
7,CSc1sc(C(=O)NC(=O)NCc2cccnc2)c(C)c1-c1ccon1,-7.84%
8,Cc1ccccc1C(=O)NC(=S)Nc1cccc(NC(=O)C(C)C)c1,-10.8%
9,c1cc(-c2noc(CC3CCCCC3)n2)ccn1,-5.51%
10,COc1ccc(C(=O)CN(C(=O)c2ccc(Cl)cc2)N2C(=O)C3CCCCC3C2=O)cc1 (centres unmarked),-6.63%
11,COc1ccc(C2NN=C(c3ccc(C)cc3)S2)cc1OC (centres unmarked),12.8%
12,O=C(C1CC(=O)N(c2ccc3c(c2)OCCO3)C1)N1CCN(Cc2ccccc2F)CC1 (centres unmarked),-9.81%
13,COc1ccc(C(=O)c2ccc([N+](=O)[O-])cc2Cl)cc1,-16.2%
14,CN(CC(=O)Nc1ccc(N2CCOCC2)cc1)C(=O)c1cc(S(=O)(=O)N(C)C)ccc1Cl,23%
15,Cc1ccsc1/C=N/NC(=O)c1ccco1,11.1%
16,CCCNS(=O)(=O)c1ccc(CCC(=O)NCCc2ccc(OC)c(OC)c2)cc1,4.46%
17,O=C(c1cc(-c2ccc(Cl)c(Cl)c2)on1)N1CCOCC1,-14.1%
18,CCCCCCC(=O)Nc1nc(C)c(-c2csc(Nc3ccc(Cl)cc3)n2)s1,12.3%
